This passage reports AQP5-HiBiT luminescence results from the supplement of paper PMC8821664.

Structures can show the parent of a compound that is named as a salt. This is one part of the list. Single values are uncertain, as repeats are few or missing.
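Also: monoclonal Beas-2B line stably carrying CMV promoter-driven AQP5-HiBiT, 5,000 cells per well in 384-well plates, lytic HiBiT plus LgBiT NanoLuc luminescence, FDA-approved drug library screen.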

The test concerns Beas-2B AQP5-HiBiT reporter cells. Nature of the test: AQP5-HiBiT luminescence relative to vehicle (ratio to vehicle); higher = higher AQP5-HiBiT protein abundance. The following applies: 10 µM; 18 h. On the technique in general: With HiBiT, luminescence reflects the tagged protein that the partner subunit can reach.
In the case of `CS(=O)(=O)OCCCCOS(C)(=O)=O` [Busulfan], the AQP5-HiBiT luminescence is 1.29.
For the molecule `COc1ccc(CNc2nc(N3CCC[C@H]3CO)ncc2C(=O)NCc2ncccn2)cc1Cl` [Avanafil], the AQP5-HiBiT luminescence worked out at 0.662.
Under `Nc1ccc(S(N)(=O)=O)cc1` [Sulfanilamide] stands 0.876.
Take `CC(C)(C)NCC(O)c1cc(O)cc(O)c1` (stereo not given) [Terbutaline Sulfate]: the AQP5-HiBiT luminescence was determined as 0.941.
Under `Cc1nnc(NS(=O)(=O)c2ccc(N)cc2)s1` [Sulfamethizole] stands 0.863; under `NC(=O)c1cnccn1` [Pyrazinamide], 1.11.
Under `CC(C)(Sc1cc(C(C)(C)C)c(O)c(C(C)(C)C)c1)Sc1cc(C(C)(C)C)c(O)c(C(C)(C)C)c1` [Probucol] stands 1.04; under `Nc1nc(CC(=O)Nc2ccc(CCNC[C@H](O)c3ccccc3)cc2)cs1` [Mirabegron], 0.816; under `COc1ccc2cc([C@@H](C)C(=O)O)ccc2c1` [(R)-Naproxen], 1.2.
Under `Cc1cc(C(C)(C)C)c(O)c(C)c1CC1=NCCN1` [Oxymetazoline hydrochloride] stands 1.05; under `CN(C)CC[C@@H](c1ccc(Cl)cc1)c1ccccn1` [Dexchlorpheniramine Maleate], 0.66.
With `CC(Oc1c(Cl)cccc1Cl)C1=NCCN1` (stereo not given) [Lofexidine hydrochloride], the AQP5-HiBiT luminescence was 1.18.
`CN(C)CCC(c1ccc(Cl)cc1)c1ccccn1` (stereo not given) [Chlorpheniramine maleate]: the AQP5-HiBiT luminescence worked out at 1.15.
Take `CN(C)CCc1c[nH]c2ccc(Cn3cncn3)cc12` [Rizatriptan benzoate]: the AQP5-HiBiT luminescence stood at 0.597.
`CN(C)[C@@H]1C(O)=C(C(N)=O)C(=O)[C@@]2(O)C(O)=C3C(=O)c4c(O)ccc(Cl)c4[C@@](C)(O)[C@H]3C[C@@H]12` [Chlortetracycline hydrochloride]: the AQP5-HiBiT luminescence came to 0.756.
Next, `CC(=O)/N=c1/sc(S(N)(=O)=O)nn1C` [Methazolamide]: 1.05.
Turning to `COc1ccccc1OCCNCC(O)COc1cccc2[nH]c3ccccc3c12` (stereo not given) [Carvedilol phosphate], the AQP5-HiBiT luminescence was 0.846.
Regarding `COc1ccc2[nH]c([S@@+]([O-])Cc3ncc(C)c(OC)c3C)nc2c1` [Esomeprazole Magnesium], the AQP5-HiBiT luminescence worked out at 1.1.
Next, `CN/C(=N\CCSCc1nc[nH]c1C)NC#N` [Cimetidine]: 0.78; `NC(=O)N1c2ccccc2CC(=O)c2ccccc21` [Oxcarbazepine]: 1.22; `CCN(CC)CCNC(=O)c1c(C)[nH]c(/C=C2\C(=O)Nc3ccc(F)cc32)c1C` [Sunitinib]: 0.934.
Under `N=C(N)NC(=O)Cc1c(Cl)cccc1Cl` [Guanfacine hydrochloride] stands 0.987.
Next, `C=C1CCN([C@H](C)[C@](O)(Cn2cncn2)c2ccc(F)cc2F)CC1` [Efinaconazole]: 0.638; `C[C@@](Cc1ccc(O)c(O)c1)(NN)C(=O)O` [Carbidopa Hydrate]: 0.606.
As for `COc1ccc([C@@H]2Sc3ccccc3N(CCN(C)C)C(=O)[C@@H]2OC(C)=O)cc1` [Diltiazem hydrochloride], the AQP5-HiBiT luminescence amounted to 0.981.
As to `Nc1nc(NC2CC2)c2ncn([C@H]3C=C[C@@H](CO)C3)c2n1` [Abacavir], the AQP5-HiBiT luminescence turned out to be 1.14.
On to `CCc1ccc(CCOc2ccc(CC3SC(=O)NC3=O)cc2)nc1` (stereo not given) [Pioglitazone], for which the AQP5-HiBiT luminescence turned out to be 1.01.
Next, `CN(C)CCC(c1ccccc1)c1ccccn1` (stereo not given) [Pheniramine maleate]: 0.848.
Under `CO[C@H]1C[C@@H]2CC[C@@H](C)[C@@](O)(O2)C(=O)C(=O)N2CCCC[C@H]2C(=O)O[C@H]([C@H](C)C[C@@H]2CC[C@@H](OC(=O)C(C)(CO)CO)[C@H](OC)C2)CC(=O)[C@H](C)/C=C(\C)[C@@H](O)[C@@H](OC)C(=O)[C@H](C)C[C@H](C)/C=C/C=C/C=C/1C` stands 0.439; under `CCCCc1nc(Cl)c(CO)n1Cc1ccc(-c2ccccc2-c2nnn[nH]2)cc1` [Losartan], 0.707; under `CCn1nc(C(=O)O)c(=O)c2cc3c(cc21)OCO3` [Cinoxacin], 1.32.
Next, `CN1CCC[C@@H]1CCO[C@](C)(c1ccccc1)c1ccc(Cl)cc1` [Clemastine fumarate]: 1.25; `CCOc1nc2cccc(C(=O)OC(C)OC(=O)OC3CCCCC3)c2n1Cc1ccc(-c2ccccc2-c2nn[nH]n2)cc1` (stereo not given) [Candesartan Cilexetil]: 10.6.
Turning to `CCCCc1ncc(/C=C(\Cc2cccs2)C(=O)O)n1Cc1ccc(C(=O)O)cc1` [Eprosartan Mesylate], the AQP5-HiBiT luminescence is 1.37.
As for `OC[C@@H](O)[C@@H](O)[C@H](O)[C@H](O)CO` [D-Mannitol], the AQP5-HiBiT luminescence turned out to be 0.817.
Next, `O=C(O)C(=O)O.[NH-][C@@H]1CCCC[C@H]1[NH-].[Pt+2]` [Oxaliplatin]: 0.677; `Cc1cc(-c2ccc(/N=N/c3ccc4c(S(=O)(=O)O)cc(S(=O)(=O)O)c(N)c4c3O)c(C)c2)ccc1/N=N/c1ccc2c(S(=O)(=O)O)cc(S(=O)(=O)O)c(N)c2c1O` [Evans blue]: 1.03; `COc1cc(Cc2cnc(N)nc2N)cc(OC)c1OC` [Trimethoprim]: 1.1.
Under `COC(=O)C1=C(C)NC(C)=C(C(=O)OC)C1c1ccccc1[N+](=O)[O-]` [Nifedipine] stands 1.19.
Under `CCC(CC)[C@H](NC(C)=O)[C@@H]1[C@H](O)[C@@H](C(=O)O)C[C@H]1NC(=N)N` [Peramivir Trihydrate] stands 0.695.
